Results taken from PMC12820563, “FoxP3 forms a head-to-head dimer in vivo and stabilizes its multimerization on adjacent microsatellites”.
Some of the results follow.

biological target: T1, MBP-FoxP1dN (Mus musculus, UniProt P58462 326-579); assay: PD-seq (MBP pull-down with sequencing); 20 mM Tris-HCl pH 7.5, 100 mM NaCl, 1.5 mM MgCl2, 0.4 uM protein, 0.1 uM dsDNA library, 30 min, room temperature, amylose pull-down; high values mean tight binding; details: protein: recombinant; tags: His6-MBP; chain copies: 2; dsDNA, one strand shown
T1 sequence: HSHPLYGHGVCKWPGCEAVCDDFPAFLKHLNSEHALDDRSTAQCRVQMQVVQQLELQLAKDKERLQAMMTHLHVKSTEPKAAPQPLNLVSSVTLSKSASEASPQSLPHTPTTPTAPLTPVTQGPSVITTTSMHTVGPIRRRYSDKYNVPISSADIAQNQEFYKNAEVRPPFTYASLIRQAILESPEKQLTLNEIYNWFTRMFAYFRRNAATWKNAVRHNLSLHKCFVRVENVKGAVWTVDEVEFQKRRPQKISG
Summary of the method: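 Binding is the reads-per-million enrichment of pull-down relative to input, pooled across replicates. For this, 0.4 µM His6-MBP-tagged mouse FoxP3 or FoxP1 fragment lacking the N-terminus, made in E. coli, was incubated with 0.1 µM Klenow-filled double-stranded degenerate DNA library for 30 min at room temperature in Tris pH 7.5 buffer with NaCl and MgCl2. Complexes bound to amylose resin were washed three times before proteinase K released the DNA for PCR barcoding and Illumina sequencing.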

Row | Sequence | binding signal
1 | GATGATTGTTCTCCCAGCTGATGAATTTTGGACTTCGAGTAAACAAATTTTCCTAATCTTTCTGTTCAAGCGCCATCTAC | 0.908 RPM ratio (pull-down/input)
2 | GATGATTGTTCTCCCAGCTGATGAATTCCTCTGCTCGAGTAAACAAATTTTCCTAATCTTTCTGTTCAAGCGCCATCTAC | 0.749 RPM ratio (pull-down/input)
3 | GATGATTGTTCTCCCAGCTGATGAATTTGATAATTCGAGTAAACAAATTTTCCTAATCTTTCTGTTCAAGCGCCATCTAC | 1.02 RPM ratio (pull-down/input)
4 | GATGATTGTTCTCCCAGCTGATGAATTGTCACCCTCGAGTAAACAAATTTTCCTAATCTTTCTGTTCAAGCGCCATCTAC | 1 RPM ratio (pull-down/input)
5 | GATGATTGTTCTCCCAGCTGATGAATTCCCCAGATCGAGTAAACAAATTTTCCTAATCTTTCTGTTCAAGCGCCATCTAC | 0.834 RPM ratio (pull-down/input)
6 | GATGATTGTTCTCCCAGCTGATGAATTATACGACTCGAGTAAACAAATTTTCCTAATCTTTCTGTTCAAGCGCCATCTAC | 0.919 RPM ratio (pull-down/input)
7 | GATGATTGTTCTCCCAGCTGATGAATTCGCGGATTCGAGTAAACAAATTTTCCTAATCTTTCTGTTCAAGCGCCATCTAC | 0.84 RPM ratio (pull-down/input)
8 | GATGATTGTTCTCCCAGCTGATGAATTCACGGTGTCGAGTAAACAAATTTTCCTAATCTTTCTGTTCAAGCGCCATCTAC | 0.916 RPM ratio (pull-down/input)
9 | GATGATTGTTCTCCCAGCTGATGAATTATGCTCGTCGAGTAAACAAATTTTCCTAATCTTTCTGTTCAAGCGCCATCTAC | 1.01 RPM ratio (pull-down/input)
10 | GATGATTGTTCTCCCAGCTGATGAATTTAAAAGTTCGAGTAAACAAATTTTCCTAATCTTTCTGTTCAAGCGCCATCTAC | 0.888 RPM ratio (pull-down/input)
11 | GATGATTGTTCTCCCAGCTGATGAATTTCGGGCGTCGAGTAAACAAATTTTCCTAATCTTTCTGTTCAAGCGCCATCTAC | 0.868 RPM ratio (pull-down/input)
12 | GATGATTGTTCTCCCAGCTGATGAATTCCGAGTGTCGAGTAAACAAATTTTCCTAATCTTTCTGTTCAAGCGCCATCTAC | 0.822 RPM ratio (pull-down/input)
13 | GATGATTGTTCTCCCAGCTGATGAATTCAACGCGTCGAGTAAACAAATTTTCCTAATCTTTCTGTTCAAGCGCCATCTAC | 0.959 RPM ratio (pull-down/input)
14 | GATGATTGTTCTCCCAGCTGATGAATTCGAGGGCTCGAGTAAACAAATTTTCCTAATCTTTCTGTTCAAGCGCCATCTAC | 0.708 RPM ratio (pull-down/input)
15 | GATGATTGTTCTCCCAGCTGATGAATTGCTATCCTCGAGTAAACAAATTTTCCTAATCTTTCTGTTCAAGCGCCATCTAC | 0.977 RPM ratio (pull-down/input)
16 | GATGATTGTTCTCCCAGCTGATGAATTACTATAGTCGAGTAAACAAATTTTCCTAATCTTTCTGTTCAAGCGCCATCTAC | 1.18 RPM ratio (pull-down/input)
17 | GATGATTGTTCTCCCAGCTGATGAATTAACGCGATCGAGTAAACAAATTTTCCTAATCTTTCTGTTCAAGCGCCATCTAC | 0.959 RPM ratio (pull-down/input)
18 | GATGATTGTTCTCCCAGCTGATGAATTATAGCTGTCGAGTAAACAAATTTTCCTAATCTTTCTGTTCAAGCGCCATCTAC | 1.06 RPM ratio (pull-down/input)
19 | GATGATTGTTCTCCCAGCTGATGAATTGATTGCCTCGAGTAAACAAATTTTCCTAATCTTTCTGTTCAAGCGCCATCTAC | 1.05 RPM ratio (pull-down/input)
20 | GATGATTGTTCTCCCAGCTGATGAATTAATATCATCGAGTAAACAAATTTTCCTAATCTTTCTGTTCAAGCGCCATCTAC | 1.24 RPM ratio (pull-down/input)
21 | GATGATTGTTCTCCCAGCTGATGAATTTGAATTCTCGAGTAAACAAATTTTCCTAATCTTTCTGTTCAAGCGCCATCTAC | 0.834 RPM ratio (pull-down/input)

Row | Sequence | binding signal
22 | GATGATTGTTCTCCCAGCTGATGAATTGACCCGATCGAGTAAACAAATTTTCCTAATCTTTCTGTTCAAGCGCCATCTAC | 0.85 RPM ratio (pull-down/input)
23 | GATGATTGTTCTCCCAGCTGATGAATTCCAAGCATCGAGTAAACAAATTTTCCTAATCTTTCTGTTCAAGCGCCATCTAC | 0.968 RPM ratio (pull-down/input)
24 | GATGATTGTTCTCCCAGCTGATGAATTTGCTCTATCGAGTAAACAAATTTTCCTAATCTTTCTGTTCAAGCGCCATCTAC | 0.97 RPM ratio (pull-down/input)
25 | GATGATTGTTCTCCCAGCTGATGAATTCGTCGTGTCGAGTAAACAAATTTTCCTAATCTTTCTGTTCAAGCGCCATCTAC | 0.922 RPM ratio (pull-down/input)
26 | GATGATTGTTCTCCCAGCTGATGAATTTGGCGGGTCGAGTAAACAAATTTTCCTAATCTTTCTGTTCAAGCGCCATCTAC | 0.737 RPM ratio (pull-down/input)
27 | GATGATTGTTCTCCCAGCTGATGAATTCGTGTCATCGAGTAAACAAATTTTCCTAATCTTTCTGTTCAAGCGCCATCTAC | 1.06 RPM ratio (pull-down/input)
28 | GATGATTGTTCTCCCAGCTGATGAATTCTGTTTTTCGAGTAAACAAATTTTCCTAATCTTTCTGTTCAAGCGCCATCTAC | 1.99 RPM ratio (pull-down/input)
29 | GATGATTGTTCTCCCAGCTGATGAATTCACCGCATCGAGTAAACAAATTTTCCTAATCTTTCTGTTCAAGCGCCATCTAC | 1.02 RPM ratio (pull-down/input)
30 | GATGATTGTTCTCCCAGCTGATGAATTATGAAATTCGAGTAAACAAATTTTCCTAATCTTTCTGTTCAAGCGCCATCTAC | 1.09 RPM ratio (pull-down/input)
31 | GATGATTGTTCTCCCAGCTGATGAATTAGGCCTGTCGAGTAAACAAATTTTCCTAATCTTTCTGTTCAAGCGCCATCTAC | 0.853 RPM ratio (pull-down/input)
32 | GATGATTGTTCTCCCAGCTGATGAATTCTGCGCCTCGAGTAAACAAATTTTCCTAATCTTTCTGTTCAAGCGCCATCTAC | 0.918 RPM ratio (pull-down/input)
33 | GATGATTGTTCTCCCAGCTGATGAATTCTAGCTGTCGAGTAAACAAATTTTCCTAATCTTTCTGTTCAAGCGCCATCTAC | 0.826 RPM ratio (pull-down/input)
34 | GATGATTGTTCTCCCAGCTGATGAATTGTAACAGTCGAGTAAACAAATTTTCCTAATCTTTCTGTTCAAGCGCCATCTAC | 1.15 RPM ratio (pull-down/input)
35 | GATGATTGTTCTCCCAGCTGATGAATTGGGCCCCTCGAGTAAACAAATTTTCCTAATCTTTCTGTTCAAGCGCCATCTAC | 0.798 RPM ratio (pull-down/input)
36 | GATGATTGTTCTCCCAGCTGATGAATTGCCTACCTCGAGTAAACAAATTTTCCTAATCTTTCTGTTCAAGCGCCATCTAC | 0.948 RPM ratio (pull-down/input)
37 | GATGATTGTTCTCCCAGCTGATGAATTTCCCCGATCGAGTAAACAAATTTTCCTAATCTTTCTGTTCAAGCGCCATCTAC | 0.841 RPM ratio (pull-down/input)
38 | GATGATTGTTCTCCCAGCTGATGAATTATTGGCCTCGAGTAAACAAATTTTCCTAATCTTTCTGTTCAAGCGCCATCTAC | 1.1 RPM ratio (pull-down/input)
39 | GATGATTGTTCTCCCAGCTGATGAATTTCTGGAATCGAGTAAACAAATTTTCCTAATCTTTCTGTTCAAGCGCCATCTAC | 0.906 RPM ratio (pull-down/input)
40 | GATGATTGTTCTCCCAGCTGATGAATTCCCTATATCGAGTAAACAAATTTTCCTAATCTTTCTGTTCAAGCGCCATCTAC | 0.911 RPM ratio (pull-down/input)
41 | GATGATTGTTCTCCCAGCTGATGAATTGATAGCGTCGAGTAAACAAATTTTCCTAATCTTTCTGTTCAAGCGCCATCTAC | 1.12 RPM ratio (pull-down/input)
42 | GATGATTGTTCTCCCAGCTGATGAATTCTTATTCTCGAGTAAACAAATTTTCCTAATCTTTCTGTTCAAGCGCCATCTAC | 0.845 RPM ratio (pull-down/input)

Row | Sequence | binding signal
43 | GATGATTGTTCTCCCAGCTGATGAATTTTCAGCATCGAGTAAACAAATTTTCCTAATCTTTCTGTTCAAGCGCCATCTAC | 1.15 RPM ratio (pull-down/input)
44 | GATGATTGTTCTCCCAGCTGATGAATTCTGCTTTTCGAGTAAACAAATTTTCCTAATCTTTCTGTTCAAGCGCCATCTAC | 1.06 RPM ratio (pull-down/input)
45 | GATGATTGTTCTCCCAGCTGATGAATTTTCTATCTCGAGTAAACAAATTTTCCTAATCTTTCTGTTCAAGCGCCATCTAC | 1 RPM ratio (pull-down/input)
46 | GATGATTGTTCTCCCAGCTGATGAATTTAAGATTTCGAGTAAACAAATTTTCCTAATCTTTCTGTTCAAGCGCCATCTAC | 0.887 RPM ratio (pull-down/input)
47 | GATGATTGTTCTCCCAGCTGATGAATTGAAGAGCTCGAGTAAACAAATTTTCCTAATCTTTCTGTTCAAGCGCCATCTAC | 0.737 RPM ratio (pull-down/input)
48 | GATGATTGTTCTCCCAGCTGATGAATTAAGCGTCTCGAGTAAACAAATTTTCCTAATCTTTCTGTTCAAGCGCCATCTAC | 0.921 RPM ratio (pull-down/input)
49 | GATGATTGTTCTCCCAGCTGATGAATTAAACTCCTCGAGTAAACAAATTTTCCTAATCTTTCTGTTCAAGCGCCATCTAC | 0.846 RPM ratio (pull-down/input)
50 | GATGATTGTTCTCCCAGCTGATGAATTGTCATTGTCGAGTAAACAAATTTTCCTAATCTTTCTGTTCAAGCGCCATCTAC | 1.33 RPM ratio (pull-down/input)
51 | GATGATTGTTCTCCCAGCTGATGAATTTCGCCGCTCGAGTAAACAAATTTTCCTAATCTTTCTGTTCAAGCGCCATCTAC | 0.854 RPM ratio (pull-down/input)
52 | GATGATTGTTCTCCCAGCTGATGAATTGACCTATTCGAGTAAACAAATTTTCCTAATCTTTCTGTTCAAGCGCCATCTAC | 1.01 RPM ratio (pull-down/input)
53 | GATGATTGTTCTCCCAGCTGATGAATTAGGTACGTCGAGTAAACAAATTTTCCTAATCTTTCTGTTCAAGCGCCATCTAC | 0.921 RPM ratio (pull-down/input)
54 | GATGATTGTTCTCCCAGCTGATGAATTCGAGGGGTCGAGTAAACAAATTTTCCTAATCTTTCTGTTCAAGCGCCATCTAC | 0.738 RPM ratio (pull-down/input)
55 | GATGATTGTTCTCCCAGCTGATGAATTCTGATAATCGAGTAAACAAATTTTCCTAATCTTTCTGTTCAAGCGCCATCTAC | 1.1 RPM ratio (pull-down/input)
56 | GATGATTGTTCTCCCAGCTGATGAATTAAACGTGTCGAGTAAACAAATTTTCCTAATCTTTCTGTTCAAGCGCCATCTAC | 1.01 RPM ratio (pull-down/input)
57 | GATGATTGTTCTCCCAGCTGATGAATTGAATCCGTCGAGTAAACAAATTTTCCTAATCTTTCTGTTCAAGCGCCATCTAC | 0.829 RPM ratio (pull-down/input)
58 | GATGATTGTTCTCCCAGCTGATGAATTACTGAGGTCGAGTAAACAAATTTTCCTAATCTTTCTGTTCAAGCGCCATCTAC | 0.912 RPM ratio (pull-down/input)
59 | GATGATTGTTCTCCCAGCTGATGAATTATAGAGTTCGAGTAAACAAATTTTCCTAATCTTTCTGTTCAAGCGCCATCTAC | 0.944 RPM ratio (pull-down/input)
60 | GATGATTGTTCTCCCAGCTGATGAATTTCCACTGTCGAGTAAACAAATTTTCCTAATCTTTCTGTTCAAGCGCCATCTAC | 0.825 RPM ratio (pull-down/input)
61 | GATGATTGTTCTCCCAGCTGATGAATTTTCATGTTCGAGTAAACAAATTTTCCTAATCTTTCTGTTCAAGCGCCATCTAC | 0.921 RPM ratio (pull-down/input)
62 | GATGATTGTTCTCCCAGCTGATGAATTATTCAATTCGAGTAAACAAATTTTCCTAATCTTTCTGTTCAAGCGCCATCTAC | 1.02 RPM ratio (pull-down/input)
63 | GATGATTGTTCTCCCAGCTGATGAATTTAATGACTCGAGTAAACAAATTTTCCTAATCTTTCTGTTCAAGCGCCATCTAC | 0.964 RPM ratio (pull-down/input)
